Laboratory results published in patent publication US11459397B2, “Self-crosslinking antibodies” (Meditope Biosciences, Inc., priority 2016, dated 2022).

Legend:
sHER2 = sHER2 (Homo sapiens, UniProt P04626); assay: size exclusion chromatography co-elution of meditope-enabled trastuzumab, sHER2 and meditope-Fc; assay type: binding; settings: meditope-enabled trastuzumab
[1] = tested on: stoichiometric complex of EGFRdIII and cetuximab Fab; assay: size exclusion chromatography of meditope-Fc with cetuximab Fab and EGFRdIII; assay type: binding
[2] = modulation of self-crosslinking by free meditope, silver-stained native gel; assay type: physicochemical; settings: 100 nM antibody; for multimer formation in native gel with excess of free meditope: 1 μM cQFD free meditope, 30 minutes
[3] = tested on: HL-60 cells expressing CD33; assay: pHrodo-labeled antibody internalization, flow cytometric analysis; assay type: cell-based; settings: 15 minutes at 37° C.
[4] = antibody self-crosslinking by size-exclusion chromatography; assay type: physicochemical; settings: histidine 20 mM pH6, sucrose 5%
[5] = tested on: HL-60 cells expressing CD33; assay: pHrodo-labeled antibody internalization, confocal fluorescence microscopy; assay type: cell-based; settings: 15 minutes at 37° C., HL-60 cells expressing CD33, confocal microscope
[6] = concentration dependence of self-crosslinking, silver-stained native gel; assay type: physicochemical; settings: 1 nM and 100 nM samples in PBS

B1: meditope-Fc construct: meditope fused to the N-terminus of an Fc domain via a poly-glycine-serine linker; SEQ ID NO: 57 (protein)
chain: GCQFDLSTRRLRCGGSRSGGTSGGGSVPGSGSSGSTSGSGKSSEGSGQ[sequence of human IgG1 Fc and a few adjoining residues omitted]
With B1 the “co-elution by size exclusion chromatography” value (sHER2) was “co-eluted” and the “complex formation by size exclusion chromatography (SEC)” value [1] was “form a complex”.

B2: SnAP-body variant 1: meditope-enabled gemtuzumab light chain (SEQ ID NO: 254); IgG1 heavy chain fused to a meditope via a linker (SEQ ID NO: 255) (antibody)
heavy: CQFDLSTRRLKCGGGAREEAAKAAEEAKKAAEEAAKAAQVQLQQSGAELAKPGASVKMSCKASGYTFTSYRMHWVKQSPGQGLEWIGYINPSTGYTEYNQKFKDKATLTADKSSSTAYMQLSSLTFEDSAIYYCARGGGVFDYWGQGTTLTVSS[sequence of human IgG1 constant region omitted]
light: QIVLTQSPAIMSASPGEKVTITCSASSSISYMHWFQQRTNGSPRLWIYTTSNLASGVPARFSGSGSGTSYSLTISRMEAEDEADYYCHQRSTYPLTFGAGTKLELKRTVAAPSVFIFPPSDEQLKSGTASVVCLLNNFYPREAKVQWKVDNALQSGNSQESVTEQDSKDSTYSLSSTLTLSKADYEKHKVYACEVTHQGLSSPVTKSFNRGEC
modifications: Anti-CD33 SnAP-body variant 1 heavy chain; Anti-CD33 Light Chain
With B2 the “multimer formation in native gel in the absence of free meditope” value [2] was “form dimers, trimers, and tetramers”, the “multimer formation in native gel with excess of free meditope” value [2] was “little to no detectable multimers” and the “flow cytometry histogram of pHrodo fluorescence compared to the control” value [3] was “additional peaks with increased intensity as compared to the control”. For the same molecule, the “oligomeric state by size-exclusion chromatography” value (“oligomeric state” for short) [4] was “form dimers and multimers” and the “total staining (fluorescence per cell) normalized to the control” value [5] was “more than 2.5 times”.

B3: SnAP-body variant 2: meditope-enabled gemtuzumab light chain (SEQ ID NO: 254); IgG1 heavy chain fused to a meditope via a linker (SEQ ID NO: 256) (antibody)
heavy: CQFDLSTRRLKCGGGAAARAAAARAAAARAQVQLQQSGAELAKPGASVKMSCKASGYTFTSYRMHWVKQSPGQGLEWIGYINPSTGYTEYNQKFKDKATLTADKSSSTAYMQLSSLTFEDSAIYYCARGGGVFDYWGQGTTLTVSS[sequence of human IgG1 constant region omitted]
light: QIVLTQSPAIMSASPGEKVTITCSASSSISYMHWFQQRTNGSPRLWIYTTSNLASGVPARFSGSGSGTSYSLTISRMEAEDEADYYCHQRSTYPLTFGAGTKLELKRTVAAPSVFIFPPSDEQLKSGTASVVCLLNNFYPREAKVQWKVDNALQSGNSQESVTEQDSKDSTYSLSSTLTLSKADYEKHKVYACEVTHQGLSSPVTKSFNRGEC
modifications: Anti-CD33 SnAP-body variant 2 heavy chain; Anti-CD33 Light Chain
For B3, the “multimer formation in native gel in the absence of free meditope” value [2] was “form dimers, trimers, and tetramers”, the “multimer formation in native gel with excess of free meditope” value [2] was “little to no detectable multimers” and the “flow cytometry histogram of pHrodo fluorescence compared to the control” value [3] was “additional peaks with increased intensity as compared to the control”. For the same molecule, the “oligomeric state” value [4] was “form dimers and multimers” and the “total staining (fluorescence per cell) normalized to the control” value [5] was “more than 2.0 times”.

B4: gemtuzumab control antibody: meditope-enabled gemtuzumab IgG1 heavy chain (SEQ ID NO: 257) without a meditope or a linker; light chain SEQ ID NO: 254 (antibody)
heavy: QVQLQQSGAELAKPGASVKMSCKASGYTFTSYRMHWVKQSPGQGLEWIGYINPSTGYTEYNQKFKDKATLTADKSSSTAYMQLSSLTFEDSAIYYCARGGGVFDYWGQGTTLTVSS[sequence of human IgG1 constant region omitted]
light: QIVLTQSPAIMSASPGEKVTITCSASSSISYMHWFQQRTNGSPRLWIYTTSNLASGVPARFSGSGSGTSYSLTISRMEAEDEADYYCHQRSTYPLTFGAGTKLELKRTVAAPSVFIFPPSDEQLKSGTASVVCLLNNFYPREAKVQWKVDNALQSGNSQESVTEQDSKDSTYSLSSTLTLSKADYEKHKVYACEVTHQGLSSPVTKSFNRGEC
modifications: Control anti-CD33 heavy chain; Anti-CD33 Light Chain
In the case of B4, the “oligomeric state” value [4] is reported as “eluted as a single monomeric peak” and the “multimer formation in native gel” value [6] is reported as “only formed monomers, and did not self-crosslink”.

B5: SnAP-body variant 3: meditope-enabled gemtuzumab light chain (SEQ ID NO: 254); IgG1 heavy chain fused to a meditope via a linker (SEQ ID NO: 279) (antibody)
heavy: CQFDLSTRRLKCGGGSKDEIDSAVKQVQLQQSGAELAKPGASVKMSCKASGYTFTSYRMHWVKQSPGQGLEWIGYINPSTGYTEYNQKFKDKATLTADKSSSTAYMQLSSLTFEDSAIYYCARGGGVFDYWGQGTTLTVSS[sequence of human IgG1 constant region omitted]
light: QIVLTQSPAIMSASPGEKVTITCSASSSISYMHWFQQRTNGSPRLWIYTTSNLASGVPARFSGSGSGTSYSLTISRMEAEDEADYYCHQRSTYPLTFGAGTKLELKRTVAAPSVFIFPPSDEQLKSGTASVVCLLNNFYPREAKVQWKVDNALQSGNSQESVTEQDSKDSTYSLSSTLTLSKADYEKHKVYACEVTHQGLSSPVTKSFNRGEC
modifications: cQFD meditope, variant 3 linker, fused to the heavy chain of meditope enabled gemtuzumab; Anti-CD33 Light Chain
With B5 the “multimer formation in native gel in the absence of free meditope” value [2] was “form dimers, trimers, and tetramers”, the “multimer formation in native gel with excess of free meditope” value [2] was “little to no detectable multimers” and the “oligomeric state” value [4] was “form dimers and multimers”.
